# Test results from the RNAGym collection of RNA variant scans (doi:10.1093/nar/gkz1192).
# The source gives no read counts; variants with many changes may rest on few reads.
# B1: CPEB3 Ribozyme (parent)
# chain: UAACAGGGGGCCACAGCAGAAGCGUUCACGUCGCAGCCCCUGUCAGAUUCUGGUGAAUCUGCGAAUUCUGCUGUAUAUCUC
# Variants of: B1
# Experiment: self-cleavage, relative activity (ratio to wild type); higher = more cleavage; in vitro, sequencing
# How it was run: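 For each CPEB3 ribozyme variant, relative activity is its cleaved/total read fraction divided by the unmutated ribozyme's. Barcoded error-prone PCR libraries were transcribed by T7 RNA polymerase (5 hours, 37°C) and held in DNase I for 15 min before an EDTA stop, with cleavage occurring throughout. Template-switching reverse transcription and Illumina sequencing were used to read the RNAs. A 5-read minimum applied, and results are the mean of three batches.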
row,Variant,self-cleavage
1,UAACAGGGGGCCACAGCAGAAGCGCUCACGUCGCAGCACCCGUCAGAUUCUGGUGAGUCUGCGAAUUCUGCUGUACAUCUC [U25C C38A U41C A57G U76C],0.22
2,UAACAGGGGGCCACAGCAGAAGCGCUCACGUCGCAGCGCCUGCCAGAUUCGGGUGAAUCUGCGAAUUCUGCUGUACAUCUC [U25C C38G U43C U51G U76C],0.05
3,UAACAGGGGGCCACAGCAGAAGCGCUCACGUCGCAGCGCCUGUCAGAUUCUGGUGAAUCCGCGAAUUCCGCUGUAUAUCUC [U25C C38G U60C U69C],0.03
4,UAACAGGGGGCCACAGCAGAAGCGCUCACGUCGCAGCUCCUGCCGGGUUCUGGUGAAUCUGCGAAUUCUGCUGUAUAUCUC [U25C C38U U43C A45G A47G],0.18
5,UAACAGGGGGCCACAGCAGAAGCGCUCACGUCGCAGCUCCUGUCAGAUUCUGGUGAAUCUGCGAAUUCCGCUGUAUAUCUC [U25C C38U U69C],0.1
6,UAACAGGGGGCCACAGCAGAAGCGCUCACGUCGCAGCCACUGUCAGGUUCUGGUGAAUCUGCGAAUUCUGCUGUAUAUCUC [U25C C39A A47G],0.27
7,UAACAGGGGGCCACAGCAGAAGCGCUCACGUCGCAGCCACUGUCAGAUUUGGGUGAAUCCGCGAAUUCUGCUGUAUAUCUC [U25C C39A C50U U51G U60C],0.11
8,UAACAGGGGGCCACAGCAGAAGCGCUCACGUCGCAGCCUCUGUCCGAUUCUGGUGAAUCUGCGAAUUCUGCUGUAUAUCUC [U25C C39U A45C],0.25
9,UAACAGGGGGCCACAGCAGAAGCGCUCACGUCGCAGCCUCUGUCCGAUUCUGGUGAAUCUGCGAAUUCUGCUGUAUAUCCC [U25C C39U A45C U80C],0.28
10,UAACAGGGGGCCACAGCAGAAGCGCUCACGUCGCAGCCCAUGUCAGAUUCCGGUGAAUCUGCGAAUUCUGCUGUAUAUCUC [U25C C40A U51C],0.15
11,UAACAGGGGGCCACAGCAGAAGCGCUCACGUCGCAGCCCAUGUCAGAUUCUGGUGAAUCAGCGAACUCUGCUGUAUAUCUC [U25C C40A U60A U66C],0.13
12,UAACAGGGGGCCACAGCAGAAGCGCUCACGUCGCAGCCCGUGUCAGGUUCAGGUGAAUCCGCGAAUUCUGCUGCAUAUCUC [U25C C40G A47G U51A U60C U74C],0.17
13,UAACAGGGGGCCACAGCAGAAGCGCUCACGUCGCAGCCCUUGUCAGAUUCUGGUGAAUCUGCGGAUUCUGCUGUAUAUCUC [U25C C40U A64G],0.37
14,UAACAGGGGGCCACAGCAGAAGCGCUCACGUCGCAGCCCUUGCCAGAUUCUGGUGAAUCUGCGAAUUCUGCUGUAUACCUC [U25C C40U U43C U78C],0.08
15,UAACAGGGGGCCACAGCAGAAGCGCUCACGUCGCAGCCCUUGUCAGAUUCCGGUGAAUCUGCGAACUCUGCUGUAUAUCUC [U25C C40U U51C U66C],0.13
16,UAACAGGGGGCCACAGCAGAAGCGCUCACGUCGCAGCCCUUGUCAGAUUCUGGUGAAUCUGCGAAAUCUGCUGUAUAUCUC [U25C C40U U66A],0.11
17,UAACAGGGGGCCACAGCAGAAGCGCUCACGUCGCAGCCCUUGUCAGAUUCUGGUGAAUCUGCGAACUCUGCUGUAUAUCUC [U25C C40U U66C],0.27

row,Variant,self-cleavage
1,UAACAGGGGGCCACAGCAGAAGCGCUCACGUCGCAGCCCCUGUCAGAUUCUGGUGAAUAUGCGAUUACUGCUGUAUAUCUC [U25C C59A A65U U67A],0.11
2,UAACAGGGGGCCACAGCAGAAGCGCUCACAUCGCAGCCCCUGUCAGAUUCUGGUGAAUCUGCGGAUUCUGCUGUAUAUCUA [U25C G30A A64G C81A],0.1
3,UAACAGGGGGCCACAGCAGAAGCGCUCACAUCGCAGCCCCUGUCAGAUUCUGGUGAAUCUGCGAAUCCUGCUGUAUAUCUC [U25C G30A U67C],0.13
4,UAACAGGGGGCCACAGCAGAAGCGCUCACCUCGCAGCCCCUGUCAGAUUCUGGUGAAUCUGCGAAUUCUGCUGUAUAUCAC [U25C G30C U80A],0.16
5,UAACAGGGGGCCACAGCAGAAGCGCUCACGUCACAGCCCCUGUCAGAUUCUGGUGAAUCUGCGAAUCCUGCUGUAUAUCCC [U25C G33A U67C U80C],0.15
6,UAACAGGGGGCCACAGCAGAAGCGCUCACGUCUCAGCCCCUGUCAGAUUCGGGUGAAUCUGCGAAUUCUGCUGUAUAUCUC [U25C G33U U51G],0.17
7,UAACAGGGGGCCACAGCAGAAGCGCUCACGUCGCAACCCCUGUCAGAUUCUGGUGGAUCUGCGAAUUCUGCUGUAUAUCUC [U25C G36A A56G],0.2
8,UAACAGGGGGCCACAGCAGAAGCGCUCACGUCGCACCCCCUGUCAGAUUCCGGAGAAUCUGCGAAUUCUGCUGUAUAUCUC [U25C G36C U51C U54A],0.14
9,UAACAGGGGGCCACAGCAGAAGCGCUCACGUCGCAGCCCCUACCAGAUUCUGGUGAAUCUGCGAAUUCUGCUGUACAUCUC [U25C G42A U43C U76C],0.19
10,UAACAGGGGGCCACAGCAGAAGCGCUCACGUCGCAGCCCCUAUCAGAUUCUGGGGAAUCUGCGAAUUCUGCAGUAUAUCUC [U25C G42A U54G U72A],0.13
11,UAACAGGGGGCCACAGCAGAAGCGCUCACGUCGCAGCCCCUAUCAGAUUCUGGUGAACCUGCGAAUUCUGCUGUAUAUCUC [U25C G42A U58C],0.09
12,UAACAGGGGGCCACAGCAGAAGCGCUCACGUCGCAGCCCCUCUCAGAUUCCGGUGAAUCUGCGAAUUCAGCUGUAUAUCUC [U25C G42C U51C U69A],0.18
13,UAACAGGGGGCCACAGCAGAAGCGCUCACGUCGCAGCCCCUGUCAAAUUCUGGUGAAUCUGCGGAUUCUGCUGUAUAUCUC [U25C G46A A64G],0.16
14,UAACAGGGGGCCACAGCAGAAGCGCUCACGUCGCAGCCCCUGUCACAUCCUGGUGAAUCUGCGAAUUCUGCUGUAUAUCUC [U25C G46C U49C],0.17
15,UAACAGGGGGCCACAGCAGAAGCGCUCACGUCGCAGCCCCUGUCAGAUUCUGGUGAAUCUACGAAUUCUGCCGUAUAUCUC [U25C G61A U72C],0.1
16,UAACAGGGGGCCACAGCAGAAGCGCACACGUCGCGGCCCCUGACAGAUUCUGGUGAAUCUGCGAAUUCUGCUGUAUAUCUC [U25C U26A A35G U43A],0.09
17,UAACAGGGGGCCACAGCAGAAGCGCACACGUCGCAGCCCCUGUCCGACUCUGGUGAAUCAGCGAAUUCUGCAGUAUAUCUC [U25C U26A A45C U48C U60A U72A],0.15
